In US20250388650A1 (ENOSI THERAPEUTICS, published 2025):

Key:
heregulin (HRG) [1] = target: T1, heregulin (HRG) (UniProt Q02297-6 177-241, limits assumed, 125I label in Example 4); assay: NRG1β1 binding capacity against RB200h and RB220h
T1 construct: also called HRG1β1
T1 sequence (looked up): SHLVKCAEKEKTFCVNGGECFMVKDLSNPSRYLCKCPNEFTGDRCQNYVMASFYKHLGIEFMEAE

NRG1 = target: T2, NRG1 (UniProt Q02297-6 177-241, limits assumed); assay: cell-based or functional assay
T2 sequence (looked up): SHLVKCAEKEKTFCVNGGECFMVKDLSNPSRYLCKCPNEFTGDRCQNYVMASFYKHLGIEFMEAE

heregulin (HRG) [2] = target: T1, heregulin (HRG); assay: 125I-HRG cross-linking normalised by anti-HER3 Western blot densitometry
heregulin (HRG) [3] = target: T1, heregulin (HRG); assay: 125I-HRG binding with BS3 cross-linking, SDS-PAGE, film

B1: HER3-621/Fc (Fc fusion)
chain: SEVGNSQAVCPGTLNGLSVTGDAENQYQTLYKLYERCEVVMGNLEIVLTGHNADLSFLQWIREVTGYVLVAMNEFSTLPLPNLRVVRGTQVYDGKFAIFVMLNYNTNSSHALRQLRLTQLTEILSGGVYIEENDKLCHMDTIDWRDIVRDRDAEIVVKDNGRSCPPCHEVCKGRCWGPGSEDCQTLTKTICAPQCNGHCFGPNPNQCCHDECAGGCSGPQDTDCFACRHFNDSGACVPRCPQPLVYNKLTFQLEPNPHTKYQYGGVCVASCPHNFVVDQTSCVRACPPDKMEVDKNGLKMCEPCGGLCPKACEGTGSGSRFQTVDSSNIDGFVNCTKILGNLDFLITGLNGDPWHKIPALDPEKLNVFRTVREITGYLNIQSWPPHMHNFSVFSNLTTIGGRSLYNRGFSLLIMKNLNVTSLGFRSLKEISAGRIYISANRQLCYHHSLNWTKVLRGPTEERLDIKHNRPRRDCVAEGKVCDPLCSSGGCWGPGPGQCLSCRNYSRGGVCVTHCNFLNGEPREFAHEAECFSCHPECQPMGGTATCNGSGSDTCAQCAHFRDGPHCVSSCPHGVLGAKGPIYKYPDVQNECRPCHENCTQGCKGPELQDCLGQTLVLIGKTGGGGG[letters of human IgG1 Fc not shown]
notes: Fc-mediated homodimer; also called HFD300; HFD300h
For B1, the “binding activity relative to the heterodimers” value (heregulin (HRG) [1]) was 30% and the “Approximate EC50, inhibition of NRG1-β-induced HER3 phosphorylation (MCF7 cells, phosphotyrosine ELISA)” value (NRG1) was about 45.5 nM.

B2: HFD310 (HER3-500/Fc) (Fc fusion)
chain: SEVGNSQAVCPGTLNGLSVTGDAENQYQTLYKLYERCEVVMGNLEIVLTGHNADLSFLQWIREVTGYVLVAMNEFSTLPLPNLRVVRGTQVYDGKFAIFVMLNYNTNSSHALRQLRLTQLTEILSGGVYIEKNDKLCHMDTIDWRDIVRDRDAEIVVKDNGRSCPPCHEVCKGRCWGPGSEDCQTLTKTICAPQCNGHCFGPNPNQCCHDECAGGCSGPQDTDCFACRHFNDSGACVPRCPQPLVYNKLTFQLEPNPHTKYQYGGVCVASCPHNFVVDQTSCVRACPPDKMEVDKNGLKMCEPCGGLCPKACEGTGSGSRFQTVDSSNIDGFVNCTKILGNLDFLITGLNGDPWHKIPALDPEKLNVFRTVREITGYLNIQSWPPHMHNFSVFSNLTTIGGRSLYNRGFSLLIMKNLNVTSLGFRSLKEISAGRIYISANRQLCYHHSLNWTKVLRGPTEERLDIKHNRPRRDCVAEGKVCDPLCSSGGCWGPGPGQCLSGGGGG[letters of human IgG1 Fc not shown]
notes: Fc-mediated homodimer; also called HER3-501/Fc; HF310-Fc
B2: binds (heregulin (HRG) [2]).

B3: HER4-650/Fc (Fc fusion)
chain: QSVCAGTENKLSSLSDLEQQYRALRKYYENCEVVMGNLEITSIEHNRDLSFLRSVREVTGYVLVALNQFRYLPLENLRIIRGTKLYEDRYALAIFLNYRKDGNFGLQELGLKNLTEILNGGVYVDQNKFLCYADTIHWQDIVRNPWPSNLTLVSTNGSSGCGRCHKSCTGRCWGPTENHCQTLTRTVCAEQCDGRCYGPYVSDCCHRECAGGCSGPKDTDCFACMNFNDSGACVTQCPQTFVYNPTTFQLEHNFNAKYTYGAFCVKKCPHNFVVDSSSCVRACPSSKMEVEENGIKMCKPCTDICPKACDGIGTGSLMSAQTVDSSNIDKFINCTKINGNLIFLVTAIHGDPYNAIEAIDPEKLNVFRTVREITGFLNIQSWPPNMTDFSVFSNLVTIGGRVLYSGLSLLILKQQGITSLQFQSLKEISAGNIYITDNSNLCYYHTINWTTLFSTINQRIVIRDNRKAENCTAEGMVCNHLCSSDGCWGPGPDQCLSCRRFSRGRICIESCNLYDGEFREFENGSICVECDPQCEKMEDGLLTCHGPGPDNCTKCSHFKDGPNCVEKCPDGLQGANSFIFKYADPDRECHPCHPNCTQGCNGPTSHDCIYYPWTGHSTLPQHARTGGGGG[letters of human IgG1 Fc with Q311P (EU numbers) not shown]
notes: Fc-mediated homodimer, tested as conditioned medium; also called HFD400; HDD400
B3: binds (heregulin (HRG) [3]).
